In PubChem BioAssay AID1645882 (National Center for Advancing Translational Sciences (NCATS), 2021):
About 120 (0.75%) of roughly 16,000 compounds were called active. Inconclusive results (about 4%) are left out. The call rests on the fitted dose curve; in most records, active means well fitted inhibition curve with a large enough effect; inconclusive means small, poorly fitted or top-dose-only effect; inactive means no such curve, though single readings can be large or run the other way. The list shows a part of the results.

What follows are molecules tested against Rap guanine nucleotide exchange factor 3 (Homo sapiens) (UniProt O95398) (assay: Validation qHTS for antagonist of cAMP-regulated guanine nucleotide exchange factor 3 (EPAC1)). Details: EPAC1 Rap1B-BODIPY-GDP exchange, fluorescence; series mostly up to 150 µM; activity change, negative = inhibition: at the top concentration.
Method in brief: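 Nucleotide exchange followed as fluorescence loss when BODIPY-GDP leaves Rap1B (480 nm excitation, 540 nm emission), read at 5 min intervals over 30 min. Reaction: 100 nM EPAC1, 250 nM RAP1B-BODIPY-GDP, 50 uM GDP; ATA and DMSO define normalization.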
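Further: plate controls were DMSO for no effect and ATA control for full effect; nearly all actives have a fitted effect of over 75% in size.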

Chain of UniProt O95398 (O95398 whole entry, looked up): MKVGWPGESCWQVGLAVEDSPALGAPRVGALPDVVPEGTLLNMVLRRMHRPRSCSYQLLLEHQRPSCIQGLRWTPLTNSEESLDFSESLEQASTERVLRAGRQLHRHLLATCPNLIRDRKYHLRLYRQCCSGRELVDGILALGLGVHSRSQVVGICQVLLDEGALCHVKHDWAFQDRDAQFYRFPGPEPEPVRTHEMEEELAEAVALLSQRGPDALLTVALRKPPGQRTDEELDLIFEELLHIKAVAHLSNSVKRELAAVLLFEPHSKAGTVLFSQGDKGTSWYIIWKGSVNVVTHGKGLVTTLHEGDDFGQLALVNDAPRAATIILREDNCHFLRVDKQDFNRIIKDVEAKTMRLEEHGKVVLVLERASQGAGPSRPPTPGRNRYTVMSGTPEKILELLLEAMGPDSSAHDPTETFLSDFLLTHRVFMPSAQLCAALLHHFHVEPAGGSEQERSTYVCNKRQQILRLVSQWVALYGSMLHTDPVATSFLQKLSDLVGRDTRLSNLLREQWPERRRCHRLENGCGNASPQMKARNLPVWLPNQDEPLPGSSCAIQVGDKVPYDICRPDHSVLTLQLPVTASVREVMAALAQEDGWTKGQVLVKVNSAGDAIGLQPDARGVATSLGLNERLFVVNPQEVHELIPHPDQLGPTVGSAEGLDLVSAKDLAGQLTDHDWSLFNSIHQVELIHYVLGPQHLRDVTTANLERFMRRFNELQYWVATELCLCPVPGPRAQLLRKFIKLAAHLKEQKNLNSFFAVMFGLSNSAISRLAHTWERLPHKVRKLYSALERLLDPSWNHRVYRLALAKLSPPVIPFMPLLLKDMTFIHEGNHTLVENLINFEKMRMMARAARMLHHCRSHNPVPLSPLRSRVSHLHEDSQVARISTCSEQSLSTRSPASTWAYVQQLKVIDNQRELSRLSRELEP

Activity change, negative = inhibition, inactive:
CC1=CC(=C(c2ccc(N)cc2)c2ccc(N)cc2)C=CC1=N -0.98%
COc1ccc(SCCN2CC[C@@H](C(C)(C)C)CCC2=O)cc1 -19%
C=CCN(c1ccc(Br)cc1C(=O)OC)S(C)(=O)=O 17.1%
COc1ccc(CN2CCC(=O)N([C@H](CO)Cc3ccccc3)CC2)cc1OC -23.8%
NCCCC(O)(P(=O)(O)O)P(=O)(O)O
O=C(Nc1ccccc1)N1CCCC2(CCN(C(=O)c3csnn3)CC2)C1 8.06%
O=C(c1ccncc1)N1CCC[C@@]2(CCN(c3ccncc3)C2)C1 11.1%
Nc1ccc(S(=O)(=O)Nc2cnc3ccccc3n2)cc1
Cc1ccccc1CN1CCc2nnc(C(C)NC(=O)C3CCN(C)CC3)n2CC1 (stereo not given) 7.51%
COCC(=O)N1CCC2(CCCN(c3ccccn3)C2)CC1 2.41%
c1cc2c3c(c1)CCC[N+]3(C1CCCCC1)CCC2 -21%
COC(=O)N[C@H](C(=O)N[C@@H](Cc1ccccc1)[C@@H](O)CN(Cc1ccc(-c2ccccn2)cc1)NC(=O)[C@@H](NC(=O)OC)C(C)(C)C)C(C)(C)C -9.94%
CC1(C)CC[C@]2(C)CC[C@@]3(C)C(=CCC4[C@@]5(C)CCC(O)C(C)(C)C5CC[C@@]43C)C2C1 (stereo not given in full) 7.09%
O=c1[nH]c(=O)n([C@H]2C[C@@H](O)[C@@H](CO)O2)cc1C=CBr 4.91% [at 75.8 µM]
COc1ccc(C(=O)N2CCC3(CCCN(Cc4ccncc4)C3)CC2)cc1 12.5%
COc1ccc(Oc2ncc3nc(-c4cc(F)cc(F)c4)c(=O)n(C4CC4)c3n2)cc1 11.5%
CC(C)NC(=O)N1CC[C@@]2(CCCN(C(=O)c3csnn3)C2)C1 19.7%
C=C[C@](C)(O)CCC=C(C)C 13.3%
COc1cc(-c2ccc(Cl)cn2)cc2c1OCCN(S(=O)(=O)C[C@]13CC[C@H](CC1=O)C3(C)C)C2 -1.22%
Cc1cc(NS(=O)(=O)c2ccc(N)cc2)no1
COC(=O)C[C@H]1c2cc(C(F)(F)F)ccc2S(=O)(=O)N1Cc1ccccc1 -3.42%
c1csc(CNc2nc(-c3ccoc3)nc3ccccc23)c1 -5.19%
CNC1C(O)C2OC3OC(C)CC(=O)[C@@]3(O)O[C@H]2[C@H](NC)C1O (stereo not given in full) 29.1%
O=C(c1ccc2c(c1)OCCO2)N1CCCCC1 -3.66% [at 75.8 µM]
Cc1nc(C)c(C(=O)N2CCc3c(cnc(C)c3CNC(=O)c3cncs3)C2)s1 9.19%
c1cncc(-c2nc(NCc3cccs3)c3ccccc3n2)c1 8.77%
O=C(O)c1ccccc1Nc1cc(Cl)ccc1C(=O)O 23.6%
CSCC[C@H](NC(=O)[C@H](Cc1ccc(OS(=O)(=O)O)cc1)NC(=O)[C@@H](N)CC(=O)O)C(=O)NCC(=O)N[C@@H](Cc1c[nH]c2ccccc12)C(=O)N[C@@H](CCSC)C(=O)N[C@@H](CC(=O)O)C(=O)N[C@@H](Cc1ccccc1)C(N)=O 29.4%
NS(=O)(=O)c1cc2c(cc1Cl)NC(CSCc1ccccc1)=NS2(=O)=O
Cc1cc(C(=O)Nc2ccccc2-c2nc(CNC(=O)c3cc4ccccc4cn3)c(C)o2)c(C)o1 10.3%
CS(=O)(=O)N1CCC2(CC1)CN(Cc1ccc(C#N)cc1)C2 2.98%
COc1cc(O)c2c(c1)C(=O)c1cc(C)cc(O)c1C2=O 7.05%
Cc1nc2cc(NC(=O)[C@@H]3C[C@@H](Sc4ccccn4)CN3Cc3ccc(F)cc3F)ccc2s1 32.8%
CCOC(=O)n1ccn(C)c1=S
O=C1OC(=O)C2C3CCC(O3)C12 (stereo not given)
O=P(O)(O)OP(=O)(O)O 5.53%
c1cncc(CNc2nc(-c3ccc4c(c3)OCO4)nc3ccccc23)c1 -1.58%
Cc1cnc(C(=O)N2CCOc3ccc(CN4CCCC(C(=O)c5cccnc5)C4)cc3C2)[nH]1 (stereo not given) 4.41%
CC1(O)CCC(C(C)(C)O)CC1 (stereo not given) 8.56%
COC(=O)C(C)(N)Cc1ccc(O)cc1 (stereo not given) -9.27% [at 75.8 µM]
C[C@@H](Cc1ccccc1)Nc1ncnc2c1ncn2[C@@H]1O[C@H](CO)[C@@H](O)[C@H]1O 34.7%
Cc1ccccc1-c1cncnc1NCc1ccccc1 7.26%
CC(C)CN1CCC2(CC1)CCN(C(=O)c1csnn1)CC2 6.56%
CC(=O)Nc1ccccc1-c1nc(CNC(=O)c2ccc(-n3cccn3)cc2)c(C)o1 19.1%
CCC(=O)Oc1ccc2c(c1)CC[C@@H]1[C@@H]2CC[C@]2(C)[C@@H](OC(=O)CC)CC[C@@H]12 26.1%
C#Cc1cccc(C(=O)NCc2nc(-c3ccccc3NC(=O)C3CCCO3)oc2C)c1 (stereo not given) 9.35%
Cn1c(=O)c(-c2cccc(C#N)c2)nc2cnc(Oc3ccccc3)nc21 5.55%
CC(C)c1c(O)ccc2c1CCC1[C@@](C)(CO)CCC[C@@]21C (stereo not given in full) -22.1%
Cc1cc(C=O)cc(C)c1[N+](=O)[O-] 20.4%
Cc1noc(C)c1C(=O)N1CCC2(CCN(Cc3ccc(C#N)cc3)CC2)CC1 1.55%
Cc1c(CN2CCOc3c(O)cc(-c4nc5ccccc5s4)cc3C2)cnn1C 12.4%
C=C[C@@H](C1=CC(=O)C(OC)=C(OC)C1=O)c1ccccc1 1.12%
Cc1ccnc2c(Cl)ccc(Cl)c12 15.2%
Clc1ccccc1-c1cncnc1NCc1cccs1 14.2%
C=C1CCC(O)C/C1=C/C=C1\CCC[C@@]2(C)C(C(C)/C=C/C(C)C(C)C)CC[C@@H]12 (stereo not given in full) 14%
COc1ccc(C(=O)N2CCCC(c3nc(SCc4ccccn4)ncc3C)C2)cc1F (stereo not given) -0.24%
COc1ccc(CNc2ncncc2-c2cccnc2)c(OC)c1 0.447%
O=C1CN(/N=C/c2ccc(-c3ccc([N+](=O)[O-])cc3)o2)C(=O)N1 -14.7% [at 201 µM]
Cc1cnc(CNc2nc(-c3ccccc3C(F)(F)F)nc3ccccc23)cn1 -7.09%
CCNc1ncc2nc(-c3ccc(F)cc3)c(=O)n(CCOC)c2n1 13.5%
CCCS(=O)(=O)NCc1c(C)ncc2c1CCN(C(=O)/C=C/c1ccccc1)C2 8.36%
CCN(CC)CCOC(=O)C(Cc1cccc2ccccc12)CC1CCCO1 (stereo not given)
O=c1c(-c2ccccc2)nc2cnc(N3CCOCC3)nc2n1CCc1ccccc1 10%
C[C@H](CC[C@@H]1OC1(C)C)C1CC[C@H]2[C@@H]3CC=C4C[C@@H](O)CC[C@]4(C)[C@H]3CC[C@]12C (stereo not given in full) 14.3%
CC1(C)S[C@@H]2[C@H](NC(=O)C(C(=O)O)c3ccccc3)C(=O)N2[C@H]1C(=O)O (stereo not given in full) 18.2%
